{
  "source": "a collection of fitness landscapes (doi:10.1016/j.celrep.2020.107928)",
  "parents": {"B1": {"name": "Caulobacter ParB omega fusion; a variant is named by its letters at X, in order, B8GW30 (parent)", "chain": "MESVVVGEPGMSEGRRGLGRGLSALLGEVDAAPAQAPGEQLGGSREAPIEILQRNPDQPRRTFREEDLEDLSNSIREKGVLQPILVRPSPDTAGEYQIVAGERAWRAAQRAGLKTVPIMVRELDDLAVLEIGIIENVQRADLNVLEEALSYKVLMEKFERTQENIAQTIGKSXSHVANXMRLLXLPDEVQSYLVSGELTAXHARAIAAAADPVALAKQIIEGGLSVRETEALARKAPNLSAGKSKGGRPPRVKDTDTQALESDLSSVLGLDVSIDHRGSTGTLTITYATLEQLDDLCNRLTRGI"}},
  "note": "The full ranking holds about 81,000 sequences; the median of “one-hybrid fitness for binding parS DNA” is about -0.17, and the highest 2% start at about 0.51. Some of the results follow.",
  "data": [
    {"variants_of": "B1", "test": "one-hybrid fitness for binding parS DNA (scaled: cognate 1, non-cognate 0); higher = stronger binding", "settings": "with parS DNA site", "summary_of_the_method": "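In E. coli USO, a HIS3 reporter with its site placed 19 bp from the promoter was used to select Caulobacter ParB variants randomised at four specificity codons. Growth lasted 48 hours at 37°C on histidine-free M9 containing 0.1 mM IPTG and 5 mM 3-AT. Fitness was taken as the log change in variant-to-wild-type read ratio from Illumina sequencing of pre- and post-selection plasmids, rescaled between the non-cognate and cognate sites.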", "values": [
      {"variant": "YEDG", "one-hybrid fitness for binding parS DNA": "≤ 0.2"},
      {"variant": "PVVL", "one-hybrid fitness for binding parS DNA": "≤ 0.2"},
      {"variant": "TSHW", "one-hybrid fitness for binding parS DNA": "≤ 0.2"},
      {"variant": "TQSV", "one-hybrid fitness for binding parS DNA": "≤ 0.2"},
      {"variant": "HNQR", "one-hybrid fitness for binding parS DNA": "≤ 0.2"},
      {"variant": "SSGS", "one-hybrid fitness for binding parS DNA": "≤ 0.2"},
      {"variant": "RWTH", "one-hybrid fitness for binding parS DNA": "≤ 0.2"},
      {"variant": "SDAC", "one-hybrid fitness for binding parS DNA": "≤ 0.2"},
      {"variant": "YQWG", "one-hybrid fitness for binding parS DNA": "≤ 0.2"},
      {"variant": "TSVC", "one-hybrid fitness for binding parS DNA": "≤ 0.2"},
      {"variant": "CRGD", "one-hybrid fitness for binding parS DNA": "≤ 0.2"},
      {"variant": "NWIC", "one-hybrid fitness for binding parS DNA": "≤ 0.2"},
      {"variant": "LCPA", "one-hybrid fitness for binding parS DNA": "≤ 0.2"},
      {"variant": "VAPQ", "one-hybrid fitness for binding parS DNA": "≤ 0.2"},
      {"variant": "RLPL", "one-hybrid fitness for binding parS DNA": "≤ 0.2"},
      {"variant": "RFQA", "one-hybrid fitness for binding parS DNA": 0.579},
      {"variant": "LDTR", "one-hybrid fitness for binding parS DNA": "≤ 0.2"},
      {"variant": "TMSA", "one-hybrid fitness for binding parS DNA": "≤ 0.2"},
      {"variant": "ANRC", "one-hybrid fitness for binding parS DNA": "≤ 0.2"},
      {"variant": "DNTH", "one-hybrid fitness for binding parS DNA": "≤ 0.2"},
      {"variant": "EVAA", "one-hybrid fitness for binding parS DNA": "≤ 0.2"},
      {"variant": "RKLE", "one-hybrid fitness for binding parS DNA": "≤ 0.2"},
      {"variant": "HQSH", "one-hybrid fitness for binding parS DNA": "≤ 0.2"},
      {"variant": "AWCR", "one-hybrid fitness for binding parS DNA": "≤ 0.2"},
      {"variant": "LKAL", "one-hybrid fitness for binding parS DNA": "≤ 0.2"},
      {"variant": "PPMR", "one-hybrid fitness for binding parS DNA": "≤ 0.2"},
      {"variant": "VLDG", "one-hybrid fitness for binding parS DNA": "≤ 0.2"},
      {"variant": "HQSV", "one-hybrid fitness for binding parS DNA": "≤ 0.2"},
      {"variant": "EWNT", "one-hybrid fitness for binding parS DNA": "≤ 0.2"},
      {"variant": "PNSY", "one-hybrid fitness for binding parS DNA": "≤ 0.2"},
      {"variant": "PPAY", "one-hybrid fitness for binding parS DNA": "≤ 0.2"},
      {"variant": "SHFW", "one-hybrid fitness for binding parS DNA": "≤ 0.2"},
      {"variant": "VRNH", "one-hybrid fitness for binding parS DNA": "≤ 0.2"},
      {"variant": "LFHL", "one-hybrid fitness for binding parS DNA": "≤ 0.2"},
      {"variant": "GRIA", "one-hybrid fitness for binding parS DNA": "≤ 0.2"},
      {"variant": "ACYS", "one-hybrid fitness for binding parS DNA": "≤ 0.2"},
      {"variant": "RAFV", "one-hybrid fitness for binding parS DNA": "≤ 0.2"},
      {"variant": "YLHC", "one-hybrid fitness for binding parS DNA": "≤ 0.2"},
      {"variant": "LHGR", "one-hybrid fitness for binding parS DNA": "≤ 0.2"},
      {"variant": "QIDW", "one-hybrid fitness for binding parS DNA": "≤ 0.2"},
      {"variant": "CCDG", "one-hybrid fitness for binding parS DNA": "≤ 0.2"},
      {"variant": "HLSS", "one-hybrid fitness for binding parS DNA": "≤ 0.2"},
      {"variant": "PTDR", "one-hybrid fitness for binding parS DNA": "≤ 0.2"},
      {"variant": "SFKS", "one-hybrid fitness for binding parS DNA": "≤ 0.2"},
      {"variant": "VVEW", "one-hybrid fitness for binding parS DNA": "≤ 0.2"},
      {"variant": "SATW", "one-hybrid fitness for binding parS DNA": "≤ 0.2"},
      {"variant": "SLVT", "one-hybrid fitness for binding parS DNA": "≤ 0.2"},
      {"variant": "SSGE", "one-hybrid fitness for binding parS DNA": "≤ 0.2"},
      {"variant": "LMEK", "one-hybrid fitness for binding parS DNA": "≤ 0.2"},
      {"variant": "KRNV", "one-hybrid fitness for binding parS DNA": "≤ 0.2"},
      {"variant": "WCRG", "one-hybrid fitness for binding parS DNA": "≤ 0.2"},
      {"variant": "QSCI", "one-hybrid fitness for binding parS DNA": "≤ 0.2"},
      {"variant": "PFQC", "one-hybrid fitness for binding parS DNA": "≤ 0.2"},
      {"variant": "VLWC", "one-hybrid fitness for binding parS DNA": "≤ 0.2"},
      {"variant": "AGDT", "one-hybrid fitness for binding parS DNA": "≤ 0.2"},
      {"variant": "ILSF", "one-hybrid fitness for binding parS DNA": "≤ 0.2"},
      {"variant": "LLLE", "one-hybrid fitness for binding parS DNA": "≤ 0.2"},
      {"variant": "RVDN", "one-hybrid fitness for binding parS DNA": 0.371},
      {"variant": "RCNY", "one-hybrid fitness for binding parS DNA": 0.482},
      {"variant": "ANKS", "one-hybrid fitness for binding parS DNA": "≤ 0.2"},
      {"variant": "LDHI", "one-hybrid fitness for binding parS DNA": "≤ 0.2"},
      {"variant": "RQSC", "one-hybrid fitness for binding parS DNA": 0.968},
      {"variant": "QQNG", "one-hybrid fitness for binding parS DNA": "≤ 0.2"},
      {"variant": "RYKL", "one-hybrid fitness for binding parS DNA": "≤ 0.2"},
      {"variant": "RIIR", "one-hybrid fitness for binding parS DNA": "≤ 0.2"},
      {"variant": "PSYD", "one-hybrid fitness for binding parS DNA": "≤ 0.2"},
      {"variant": "CCCS", "one-hybrid fitness for binding parS DNA": "≤ 0.2"},
      {"variant": "SGIH", "one-hybrid fitness for binding parS DNA": "≤ 0.2"},
      {"variant": "NRYN", "one-hybrid fitness for binding parS DNA": "≤ 0.2"},
      {"variant": "GDWR", "one-hybrid fitness for binding parS DNA": "≤ 0.2"},
      {"variant": "TISV", "one-hybrid fitness for binding parS DNA": "≤ 0.2"},
      {"variant": "ADNH", "one-hybrid fitness for binding parS DNA": "≤ 0.2"},
      {"variant": "MNRV", "one-hybrid fitness for binding parS DNA": "≤ 0.2"},
      {"variant": "AHWD", "one-hybrid fitness for binding parS DNA": "≤ 0.2"},
      {"variant": "LATL", "one-hybrid fitness for binding parS DNA": "≤ 0.2"},
      {"variant": "VWPM", "one-hybrid fitness for binding parS DNA": "≤ 0.2"},
      {"variant": "QLAA", "one-hybrid fitness for binding parS DNA": "≤ 0.2"}
    ]}
  ]
}
